Test results taken from PubChem BioAssay (Tox21).
Where “and” joins values, the source holds several entries; their conditions need not be identical. Equal entries are not always repeated. Inconclusive results, whose numbers are uncertain, are shown with a selection of clear calls. A potency beside an inconclusive call is a rough fit, not a confirmed value. Calls of active or inactive are those of the source. Unless noted, calls come from the whole dose curve; as a rule, active = well fitted cell-killing curve with a large enough effect in the repeat runs; inconclusive = weak or mixed curves, or effect the other way; inactive = no such curve, though single readings can be large or run the other way.

Biological target: Peroxisome proliferator-activated receptor delta (Homo sapiens) (UniProt Q03181)
Experiment: qHTS assay to identify small molecule antagonists of the peroxisome proliferator-activated receptor delta (PPARd) signaling pathway (AID 743215; active = well fitted inhibition curve with a large enough effect in the signal ratio in the repeat runs, not every such curve was filed as active; inconclusive = weak or mixed curves, or effect the other way; inactive = no such curve, though single readings can be large or run the other way; the % refers to the signal ratio;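 note: cells stimulated with agonist L165041 at 300 nM final during compound exposure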)
Settings: HEK293H PPARd-UAS-bla, beta-lactamase FRET ratio, antagonist, 17 h; ratio activity, negative = inhibition: at 62 µM (top of the series) unless noted
How it was run: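 Agonist L165041 (300 nM final) added with compound to PPARd-bla HEK293H UAS-bla reporter cells; 17 h incubation at 37 C. Read-out: LiveBLAzer FRET substrate, 2 h at room temperature, fluorescence intensity.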
% is set by controls: 0 for no effect and ±100 for the full control effect; potency is the fitted concentration of half-maximal effect; tags give direction and shape of the fitted curve or compound fluorescence and quenching.

UniProt Q03181, sequence (Q03181 whole entry, looked up): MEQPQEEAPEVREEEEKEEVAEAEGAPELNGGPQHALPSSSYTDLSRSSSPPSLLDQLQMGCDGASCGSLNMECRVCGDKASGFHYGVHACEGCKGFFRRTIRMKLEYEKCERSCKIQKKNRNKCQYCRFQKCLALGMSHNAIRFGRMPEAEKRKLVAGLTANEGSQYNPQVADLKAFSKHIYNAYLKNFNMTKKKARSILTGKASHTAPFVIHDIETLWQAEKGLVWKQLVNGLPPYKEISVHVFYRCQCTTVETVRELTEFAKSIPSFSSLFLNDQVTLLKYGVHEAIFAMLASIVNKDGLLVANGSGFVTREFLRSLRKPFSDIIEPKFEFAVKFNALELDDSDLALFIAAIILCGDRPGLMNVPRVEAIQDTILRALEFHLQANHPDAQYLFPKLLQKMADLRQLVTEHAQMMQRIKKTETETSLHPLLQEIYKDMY

Structure (SMILES) | Potency | ratio activity, negative = inhibition
O=C(O)CC(C(=O)O)C(CC(=O)O)C(=O)O (stereo not given) | inactive and inconclusive: 3.5 nM [fluorescent, full curve, poor fit] | 
O=C(c1ccccc1)C(O)c1ccccc1 (stereo not given) | inactive | 
O=C(Cl)c1cc(Cl)cc(Cl)c1 |  | inconclusive: 21.3% [at 80.4 µM]
O=C1CCCC(=O)O1 |  | inconclusive: -18.8%
COC(=O)/C=C/C(C)=C\C=C\C(C)=C\C=C\C=C(C)\C=C\C=C(C)\C=C\C(=O)O | inconclusive: 21.9 µM [rising, single point] | 
OC[C@H](Cc1cccc(O)c1)[C@H](CO)Cc1cccc(O)c1 | inactive | 
N=C(N)c1ccc(OCCCOc2ccc(C(=N)N)cc2)cc1 | inactive | 
CCCCCCOC(=O)CC |  | inconclusive: 4.25%
O=C(NS(=O)(=O)/C=C/c1cccs1)c1ccc(F)cc1Br | inconclusive: 61.6 µM [fluorescent] | 
Cc1nnc(C(=O)NC(C)(C)c2nc(C(=O)NCc3ccc(F)cc3)c(O)c(=O)n2C)o1 | inconclusive: 23.7 µM [rising, partial curve, poor fit] | 
OCC(CO)N[C@H]1C[C@](O)(CO)[C@@H](O)[C@H](O)[C@H]1O | inactive | 
CCOC(=O)c1ccc(O)cc1 | inconclusive: 11 µM [fluorescent] and inactive | 
C/C(=N\O)[C@@H](C)NCC(C)(C)CN[C@H](C)/C(C)=N/O | inconclusive: 7.5 µM [falling, partial curve, poor fit] | 
c1ccc(Oc2ccccc2)cc1 |  | inconclusive: 9.6% [at 80.4 µM]
Nc1ccc(-c2ccc(F)cc2)cc1 |  | inconclusive: 8.87%
CCCS(=O)c1ccc2nc(NC(=O)OC)[nH]c2c1 (stereo not given) |  | inconclusive: -11.5%

Biological target: Bile acid receptor (Homo sapiens) (UniProt Q96RI1)
Experiment: qHTS assay to identify small molecule antagonists of the farnesoid-X-receptor (FXR) signaling pathway (AID 743217; active = well fitted inhibition curve with a large enough effect in the signal ratio in the repeat runs, not every such curve was filed as active; inconclusive = weak or mixed curves, or effect the other way; inactive = no such curve, though single readings can be large or run the other way; the % refers to the signal ratio)
Settings: HEK293T FXR-UAS-bla, beta-lactamase ratio, CDCA-stimulated, 16 h; activity change, negative = inhibition: at 62.6 µM (top of the series) unless noted
How it was run: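 Antagonist mode: chenodeoxycholic acid at 50 uM final stimulates a UAS-driven beta-lactamase reporter in HEK 293T FXR-bla cells during 16 h, 37C compound exposure. Read-out is FRET substrate fluorescence after 2 h at room temperature.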

UniProt Q96RI1, sequence (Q96RI1 whole entry, looked up): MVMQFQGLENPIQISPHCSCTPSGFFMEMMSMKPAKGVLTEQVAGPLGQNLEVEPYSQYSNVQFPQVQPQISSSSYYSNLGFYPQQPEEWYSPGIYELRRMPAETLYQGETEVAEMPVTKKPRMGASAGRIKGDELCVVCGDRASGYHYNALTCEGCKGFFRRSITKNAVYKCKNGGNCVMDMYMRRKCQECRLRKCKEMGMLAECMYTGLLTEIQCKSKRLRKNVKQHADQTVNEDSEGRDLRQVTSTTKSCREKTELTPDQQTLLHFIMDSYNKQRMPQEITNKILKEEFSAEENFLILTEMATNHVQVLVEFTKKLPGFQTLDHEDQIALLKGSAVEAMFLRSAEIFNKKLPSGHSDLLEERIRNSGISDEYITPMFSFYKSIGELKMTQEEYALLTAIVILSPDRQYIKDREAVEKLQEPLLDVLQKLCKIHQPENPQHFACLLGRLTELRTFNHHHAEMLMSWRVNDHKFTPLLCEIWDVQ

Structure (SMILES) | activity change, negative = inhibition | Potency
C=CS(=O)(=O)O | inconclusive: -7.13% [at 81.1 µM] | 
O=C(O)CC(C(=O)O)C(CC(=O)O)C(=O)O (stereo not given) | inconclusive: 15.7% | 
CC(C)CC(=O)CC(C)CC(C)C (stereo not given) |  | inactive
Cc1cn([C@H]2C=C[C@@H](CO)O2)c(=O)[nH]c1=O |  | inactive
CCCCC(C=O)CC (stereo not given) | inconclusive: 1.47% [at 81.1 µM] | 
CSc1cnccn1 |  | inactive
C1N2CN3CN1CN(C2)C3 | inconclusive: -5.53% | 
CCCCCCOC(=O)CC |  | inactive
FC(F)(F)C(Cl)(Cl)Cl |  | inactive
CN1C(=O)c2ccc([N+](=O)[O-])cc2C1=O |  | inactive
CCS(=O)(=O)c1ccc(OC)c(C(=O)OC)c1 |  | inactive
CC(C)CC(=O)C1C(=O)c2ccccc2C1=O | inconclusive: -17.5% | 
CCCS(=O)c1ccc2nc(NC(=O)OC)[nH]c2c1 (stereo not given) |  | inconclusive: 33.5 µM [partial curve, poor fit]
CCCCCCc1ccc(-c2ccc(C#N)cc2)cc1 |  | inactive

System: not listed separately
Experiment: qHTS assay to identify small molecule agonists of the farnesoid-X-receptor (FXR) signaling pathway - cell viability counter screen (AID 743218); note: nearly all actives have a fitted effect of over 45% in size
Settings: FXR-bla HEK293T viability, CellTiter-Glo luminescence, 16 h; viability change, negative = cytotoxic: at 62.6 µM (top of the series) unless noted
How it was run: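 Viability counter screen in the same wells: CellTiter-Glo luminescence, 30 min room-temperature incubation, measured after the beta-lactamase read. Cells were GeneBLAzer FXR-UAS-bla HEK 293T, compound-treated 16 h at 37C.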

Structure (SMILES) | Potency
CCC1=C(C)CN(C(=O)NCCc2ccc(S(=O)(=O)NC(=O)NC3CCC(C)CC3)cc2)C1=O (stereo not given) | inactive
O=C(O)c1cc(C(=O)O)c(C(=O)O)cc1C(=O)O | inconclusive: 19.5 µM [cytotoxic, partial curve, poor fit]
CCCCC(C=O)CC (stereo not given) | inactive
C1N2CN3CN1CN(C2)C3 | inconclusive: 54.6 µM [rising, single point]
O=[N+]([O-])c1ccc(NCCO)c(OCCO)c1 | inactive
OCC(CO)N[C@H]1C[C@](O)(CO)[C@@H](O)[C@H](O)[C@H]1O | inconclusive: 23.7 µM [rising, partial curve, poor fit]
C/C(=N\O)[C@@H](C)NCC(C)(C)CN[C@H](C)/C(C)=N/O | inactive
CC(C)CC(=O)C1C(=O)c2ccccc2C1=O | inactive
O=C(CCN1CCN2CCCC2C1)N1c2ccccc2Sc2ccc(Cl)cc21 (stereo not given) | inconclusive: 6.51 µM [cytotoxic, partial curve, poor fit]
Nc1ccc(-c2ccc(F)cc2)cc1 | inconclusive: 0.0012 µM [cytotoxic, full curve, poor fit]
OCCOCCOCCO | inconclusive: 0.0045 µM [rising, full curve]

Biological target: Bile acid receptor (Homo sapiens) (UniProt Q96RI1)
Experiment: qHTS assay to identify small molecule agonists of the farnesoid-X-receptor (FXR) signaling pathway (AID 743220; active = well fitted activation curve with a large enough effect in the signal ratio in the repeat runs, not every such curve was filed as active; inconclusive = weak or mixed curves, or effect the other way; the % refers to the signal ratio)
Settings: HEK293T FXR-UAS-bla, beta-lactamase FRET ratio, 16 h; activation: at 62.6 µM (top of the series)
How it was run: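 FXR-UAS-bla HEK 293T cells carrying a UAS-driven beta-lactamase reporter were plated for 5 h at 37C/5% CO2, then exposed to DMSO-dissolved Tox21 10K compounds for 16 h at 37C. A LiveBLAzer B/G FRET substrate was loaded for 2 h at room temperature before fluorescence reading.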

Structure (SMILES) | Potency
C1N2CN3CN1CN(C2)C3 | inactive
CC(C)CC(=O)C1C(=O)c2ccccc2C1=O | inactive
O=C(Nc1ccc2c(c1)Cc1ccccc1-2)C(F)(F)F | inactive
Cc1c(C)n(CCN(C)C)c2ccc(C(=O)OCCN(C)C)cc12 | inconclusive: 33.5 µM [activator]

Biological target: Vitamin D3 receptor (Homo sapiens) (UniProt P11473)
Experiment: qHTS assay to identify small molecule agonists of the vitamin D receptor (VDR) signaling pathway (AID 743222; calls by dose curve)
Settings: HEK293T VDR-UAS-bla, beta-lactamase FRET ratio, 16 h; activation: at 63.5 µM (top of the series) unless noted
How it was run: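 Agonist mode, beta-lactamase reporter: fluorescence from LiveBLAzer B/G FRET substrate (2 h, room temperature) read after 16 h compound treatment at 37 C of VDR-bla cells, which were pre-incubated 4 h after seeding.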

UniProt P11473, sequence (P11473 whole entry, looked up): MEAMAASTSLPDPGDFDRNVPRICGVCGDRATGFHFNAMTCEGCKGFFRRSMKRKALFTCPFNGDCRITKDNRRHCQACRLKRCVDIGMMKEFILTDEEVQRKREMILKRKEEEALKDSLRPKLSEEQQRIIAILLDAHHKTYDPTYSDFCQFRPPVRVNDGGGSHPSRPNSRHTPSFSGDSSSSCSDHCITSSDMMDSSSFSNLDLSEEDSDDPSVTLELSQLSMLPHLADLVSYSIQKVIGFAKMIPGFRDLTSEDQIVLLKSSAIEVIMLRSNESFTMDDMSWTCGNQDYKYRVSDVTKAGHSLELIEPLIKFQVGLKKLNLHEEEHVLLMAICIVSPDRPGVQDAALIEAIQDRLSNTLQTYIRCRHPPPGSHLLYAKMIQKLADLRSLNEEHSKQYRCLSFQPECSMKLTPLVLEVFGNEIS

Structure (SMILES) | Potency
O=C(O)CC(C(=O)O)C(CC(=O)O)C(=O)O (stereo not given) | inconclusive: 43.6 µM [rising, partial curve, poor fit]
O=C(c1ccccc1)C(O)c1ccccc1 (stereo not given) | inconclusive: 61.7 µM [rising, partial curve, poor fit]
FC(F)(F)C(Cl)(Cl)Cl | inactive
CN1C(=O)c2ccc([N+](=O)[O-])cc2C1=O | inactive
Cc1nnc(C(=O)NC(C)(C)c2nc(C(=O)NCc3ccc(F)cc3)c(O)c(=O)n2C)o1 | inactive
